Laboratory results: a collection of fitness landscapes (doi:10.1126/science.1257360)
The list shows a part of the results.

B1: PhoQ; a variant is named by its letters at X, in order, P23837 (parent)
chain: MKKLLRLFFPLSLRVRFLLATAAVVLVLSLAYGMVALIGYSVSFDKTTFRLLRGESNLFYTLAKWENNKLHVELPENIDKQSPTMTLIYDENGQLLWAQRDVPWLMKMIQPDWLKSNGFHEIEADVNDTSLLLSGDHSIQQQLQEVREDDDDAEMTHSVAVNVYPATSRMPKLTIVVVDTIPVELKSSYMVWSWFIYVLSANLLLVIPLLWVAAWWSLRPIEALAKEVRELEEHNRELLNPATTRELTSLVRNLNRLLKSERERYDKYRTTLTDLTHSLKTPLXXLQXXLRSLRSEKMSVSDAEPVMLEQISRISQQIGYYLHRASMRGGTLLSRELHPVAPLLDNLTSALNKVYQRKGVNISLDISPEISFVGEQNDFVEVMGNVLDNACKYCLEFVEISARQTDEHLYIVVEDDGPGIPLSKREVIFDRGQRVDTLRPGQGVGLAVAREITEQYEGKIVAGESMLGGARMEVIFGRQHSAPKDE

Variants of: B1
Assay: enrichment ratio after two sorts for PhoP signalling (ratio (wild type AVST 3.29)); higher = more functional
Conditions: with PhoP (E. coli)

Variant	enrichment ratio
GRRW	≤ 0.25
RTKR	≤ 0.25
NSDD	≤ 0.25
RNVK	≤ 0.25
GQIK	≤ 0.25
KSFY	≤ 0.25
VYIN	≤ 0.25
DLNC	≤ 0.25
KLCR	≤ 0.25
YLMN	0.543
IDTD	≤ 0.25
YYMF	≤ 0.25
HWNG	≤ 0.25
ITFC	≤ 0.25
MHLV	≤ 0.25
RWTA	≤ 0.25
AQGM	13.3
KNFR	≤ 0.25
GVSP	≤ 0.25
HLGV	≤ 0.25
HPLR	≤ 0.25
AWGR	≤ 0.25
RFVS	≤ 0.25
MYML	≤ 0.25

Variant	enrichment ratio
PYYA	≤ 0.25
AATT	5.04
FAVS	≤ 0.25
FASS	≤ 0.25
WHAM	≤ 0.25
YNLH	≤ 0.25
VIDF	≤ 0.25
RCCC	≤ 0.25
GWIC	≤ 0.25
TCSC	12.3
VYHS	≤ 0.25
AASL	6.87
VNRG	≤ 0.25
AQYL	≤ 0.25
FRSQ	≤ 0.25
AFSL	≤ 0.25
VCPN	≤ 0.25
MYLM	≤ 0.25
FVFP	≤ 0.25
MEDS	≤ 0.25
QNFL	≤ 0.25
MNLK	≤ 0.25
LTYV	≤ 0.25
NKFK	≤ 0.25

Variant	enrichment ratio
VRLI	≤ 0.25
LMWC	≤ 0.25
RMVH	≤ 0.25
FLKM	≤ 0.25
THMT	≤ 0.25
VTDG	≤ 0.25
AGGD	≤ 0.25
PRGC	≤ 0.25
FAPW	≤ 0.25
WFGP	0.58
FPKI	≤ 0.25
GFQW	≤ 0.25
HWYK	≤ 0.25
VVQW	≤ 0.25
YWFN	≤ 0.25
SYCQ	≤ 0.25
ELAN	≤ 0.25
MNNI	≤ 0.25
LGPE	≤ 0.25
FALE	4.65
HLWP	≤ 0.25
KRVS	≤ 0.25
VPGF	≤ 0.25
AVLP	≤ 0.25

Variant	enrichment ratio
KSCT	≤ 0.25
RQFS	≤ 0.25
PFVW	≤ 0.25
AGYR	≤ 0.25
ICRR	≤ 0.25
FYAE	≤ 0.25
RDNY	≤ 0.25
SMIH	≤ 0.25
TVCM	2.78
IPMC	≤ 0.25
VYDL	≤ 0.25
WNNF	≤ 0.25
VQAD	≤ 0.25
DQMA	≤ 0.25
PCKK	≤ 0.25
SIRD	≤ 0.25
TRVM	7.9
DSDN	≤ 0.25
DSHC	≤ 0.25
DSTQ	≤ 0.25
PMNS	≤ 0.25
RAQK	≤ 0.25
RNCP	≤ 0.25
WYVQ	≤ 0.25

Variant	enrichment ratio
GERP	≤ 0.25
KMEQ	≤ 0.25
ASRH	≤ 0.25
MWMY	≤ 0.25
FWRT	≤ 0.25
TLHW	≤ 0.25
SVSA	8.33
MIHC	≤ 0.25
RTPP	≤ 0.25
AWPA	≤ 0.25
PDDH	≤ 0.25
FYHE	≤ 0.25
KRIS	≤ 0.25
THHR	≤ 0.25
TMDN	≤ 0.25
DCEV	≤ 0.25
SACV	9.07
IYSH	≤ 0.25
SQYL	≤ 0.25
HEAP	≤ 0.25
PQIW	≤ 0.25
VEDI	≤ 0.25
NFAF	≤ 0.25
DIYI	≤ 0.25

Variant	enrichment ratio
GLQW	≤ 0.25
EDQC	≤ 0.25
CFPN	≤ 0.25
LHHF	≤ 0.25
EGFA	≤ 0.25
WQTR	≤ 0.25
NWSR	≤ 0.25
WILV	≤ 0.25
PTDN	≤ 0.25
QMNF	36
ALHW	≤ 0.25
EIKA	≤ 0.25
KGFE	≤ 0.25
DSPG	≤ 0.25
DAHM	≤ 0.25
HNYL	≤ 0.25
GWIS	≤ 0.25
FHRK	≤ 0.25
HYDL	≤ 0.25
MPHV	≤ 0.25
VQTL	≤ 0.25
PTWA	≤ 0.25
MHYK	≤ 0.25
MMNS	≤ 0.25

Variant	enrichment ratio
HQHV	≤ 0.25
NTFR	≤ 0.25
VFYL	≤ 0.25
QGAG	≤ 0.25
VQPP	≤ 0.25
PLAA	≤ 0.25
WDCY	≤ 0.25
FKVI	≤ 0.25
TGHA	4
ANNY	6.43
REGI	≤ 0.25
DNMG	≤ 0.25
HPGA	≤ 0.25
KRNS	≤ 0.25
WPYY	≤ 0.25
TNHN	≤ 0.25
LQQS	≤ 0.25
TTWT	15
RQPN	≤ 0.25
FEPL	≤ 0.25
NNAF	≤ 0.25
SRQT	≤ 0.25
IITF	≤ 0.25
DRTS	≤ 0.25

Variant	enrichment ratio
KPYN	≤ 0.25
LSKW	≤ 0.25
VPLC	≤ 0.25
MYAT	≤ 0.25
ACGL	2.96
ASDN	≤ 0.25
MVCV	≤ 0.25
LSYE	≤ 0.25
AMFM	≤ 0.25
WMFF	≤ 0.25
RGMD	≤ 0.25
STED	≤ 0.25
MRFD	≤ 0.25
LALY	≤ 0.25
YFAQ	≤ 0.25
WRWL	≤ 0.25
WCPF	≤ 0.25
RCWM	≤ 0.25
NYED	≤ 0.25
ACCC	34.1
CIIM	≤ 0.25
YWYK	≤ 0.25
SKYK	≤ 0.25
LFPP	≤ 0.25

Variant	enrichment ratio
TWSW	≤ 0.25
SCWS	≤ 0.25
SEPV	≤ 0.25
RLHI	≤ 0.25
LLLT	≤ 0.25
SMKE	≤ 0.25
FPQC	≤ 0.25
PEHN	≤ 0.25
FWCI	≤ 0.25
HRAG	≤ 0.25
TINS	9.25
AIEV	≤ 0.25
ITLL	7.22
HSDM	≤ 0.25
FIGC	≤ 0.25
DTSH	≤ 0.25
RSLK	≤ 0.25
RWPG	≤ 0.25
DSYL	≤ 0.25
VHWQ	≤ 0.25
RVCF	≤ 0.25
KRWI	≤ 0.25
FMPY	≤ 0.25
RVHH	≤ 0.25

Variant	enrichment ratio
IAWT	≤ 0.25
GVMR	≤ 0.25
LVIC	≤ 0.25
FAKS	≤ 0.25
ETDT	≤ 0.25
DIRE	≤ 0.25
LCWF	≤ 0.25
DMSI	≤ 0.25
TTQC	2.43
WEAW	≤ 0.25
NDCE	≤ 0.25
FSAS	≤ 0.25
FDIR	≤ 0.25
FFVM	≤ 0.25
FIMN	≤ 0.25
KIHL	≤ 0.25
VREV	≤ 0.25
AGPM	≤ 0.25
YPFV	≤ 0.25
GNKE	≤ 0.25
MMQP	≤ 0.25
RITK	≤ 0.25
KIFC	≤ 0.25
HSPQ	≤ 0.25

Variant	enrichment ratio
NRWF	≤ 0.25
WGVM	≤ 0.25
GESK	≤ 0.25
IYQD	≤ 0.25
ILKR	≤ 0.25
YRFN	≤ 0.25
GRAC	≤ 0.25
HHPW	≤ 0.25
ILDW	≤ 0.25
RMFF	≤ 0.25
FACE	≤ 0.25
ECLI	≤ 0.25
GIMT	12.6
GAVV	≤ 0.25
RMWK	≤ 0.25
NYYI	≤ 0.25
TSNA	10.2
RWGH	≤ 0.25
KIHQ	≤ 0.25
AAAY	≤ 0.25
TPSH	≤ 0.25
FKHM	≤ 0.25
LFGD	≤ 0.25
PVCD	≤ 0.25

Variant	enrichment ratio
FCFQ	0.361
AACI	12.2
PTQG	≤ 0.25
PMTM	≤ 0.25
NVWK	≤ 0.25
QGVV	≤ 0.25
VASA	≤ 0.25
RPKR	≤ 0.25
MKYD	≤ 0.25
PVKP	≤ 0.25
YFNC	≤ 0.25
EYQR	≤ 0.25
MWTD	≤ 0.25
TDES	≤ 0.25
GEQC	≤ 0.25
THRI	≤ 0.25
KYTN	≤ 0.25
VFKT	≤ 0.25
DCPQ	≤ 0.25
HKWI	≤ 0.25
KTAA	≤ 0.25
PHTF	≤ 0.25
GMHG	≤ 0.25
ESHE	≤ 0.25

Variant	enrichment ratio
FCKI	≤ 0.25
SGWH	≤ 0.25
NWLG	≤ 0.25
LQNK	≤ 0.25
RTYF	≤ 0.25
EFYS	≤ 0.25
IDYA	≤ 0.25
DSKG	≤ 0.25
VHVY	≤ 0.25
QHKE	≤ 0.25
GNFW	≤ 0.25
GAFR	≤ 0.25
AKRL	≤ 0.25
CPSL	≤ 0.25
IYIN	≤ 0.25
SFEH	≤ 0.25
MPLY	≤ 0.25
WSTY	≤ 0.25
